Experimental data taken from article PMC9911399, “Two distinct binding modes provide the RNA-binding protein RbFox with extraordinary sequence specificity”.
Positions count from the first letter of the chain named. This is one part of the list.

T1: RBFOX1 RRM RbFoxmut (Fox-RRM*) (Homo sapiens, UniProt Q9NWB1 109-208, R118D;E147R;N151S;E152T)
T1 sequence: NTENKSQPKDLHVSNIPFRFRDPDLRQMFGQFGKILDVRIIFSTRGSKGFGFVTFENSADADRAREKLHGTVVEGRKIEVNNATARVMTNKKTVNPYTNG

B1: CACGUUA (DNA:RNA)
RNA: GGGAGACCGGAAUUCAGAUUGUCCCACGUUAUUAAAUCCCGUCGUAGCCACCA
DNA 1: CAATCTGAATTCCGGTCTCCC
DNA 2: TGGTGGCTACGACGGGATT
B2: CGAGGCA (DNA:RNA)
RNA: B1 RNA with A26G, C27A, U29G, U30C
DNA 1: CAATCTGAATTCCGGTCTCCC
DNA 2: TGGTGGCTACGACGGGATT
B3: GACUUAG (DNA:RNA)
RNA: B1 RNA with C25G, G28U, U30A, A31G
DNA 1: CAATCTGAATTCCGGTCTCCC
DNA 2: TGGTGGCTACGACGGGATT
B4: CUCACGU (DNA:RNA)
RNA: B1 RNA with A26U, G28A, U29C, U30G, A31U
DNA 1: CAATCTGAATTCCGGTCTCCC
DNA 2: TGGTGGCTACGACGGGATT
B5: AAAUAUA (DNA:RNA)
RNA: B1 RNA with C25A, C27A, G28U, U29A
DNA 1: CAATCTGAATTCCGGTCTCCC
DNA 2: TGGTGGCTACGACGGGATT
B6: AGGUAGC (DNA:RNA)
RNA: GGGAGACCGGAAUUCAGAUUGUCCAGGUAGCUUAAAUCCCGUCGUAGCCACCA
DNA 1: CAATCTGAATTCCGGTCTCCC
DNA 2: TGGTGGCTACGACGGGATT
B7: ACAGUUG (DNA:RNA)
RNA: B1 RNA with C25A, A26C, C27A, A31G
DNA 1: CAATCTGAATTCCGGTCTCCC
DNA 2: TGGTGGCTACGACGGGATT
B8: UAAGGUG (DNA:RNA)
RNA: B1 RNA with C25U, C27A, U29G, A31G
DNA 1: CAATCTGAATTCCGGTCTCCC
DNA 2: TGGTGGCTACGACGGGATT
B9: UGAUAGC (DNA:RNA)
RNA: B6 RNA with A25U, G27A
DNA 1: CAATCTGAATTCCGGTCTCCC
DNA 2: TGGTGGCTACGACGGGATT
B10: GGCGACA (DNA:RNA)
RNA: B1 RNA with C25G, A26G, U29A, U30C
DNA 1: CAATCTGAATTCCGGTCTCCC
DNA 2: TGGTGGCTACGACGGGATT
B11: CCGCUUG (DNA:RNA)
RNA: B1 RNA with A26C, C27G, G28C, A31G
DNA 1: CAATCTGAATTCCGGTCTCCC
DNA 2: TGGTGGCTACGACGGGATT
B12: AGACCAC (DNA:RNA)
RNA: B6 RNA with G27A, U28C, A29C, G30A
DNA 1: CAATCTGAATTCCGGTCTCCC
DNA 2: TGGTGGCTACGACGGGATT
B13: UGGGACG (DNA:RNA)
RNA: B6 RNA with A25U, U28G, G30C, C31G
DNA 1: CAATCTGAATTCCGGTCTCCC
DNA 2: TGGTGGCTACGACGGGATT
B14: AGAGGUC (DNA:RNA)
RNA: B6 RNA with G27A, U28G, A29G, G30U
DNA 1: CAATCTGAATTCCGGTCTCCC
DNA 2: TGGTGGCTACGACGGGATT
B15: CGAAUCC (DNA:RNA)
RNA: B6 RNA with A25C, G27A, U28A, A29U, G30C
DNA 1: CAATCTGAATTCCGGTCTCCC
DNA 2: TGGTGGCTACGACGGGATT
B16: CUAUUGC (DNA:RNA)
RNA: B6 RNA with A25C, G26U, G27A, A29U
DNA 1: CAATCTGAATTCCGGTCTCCC
DNA 2: TGGTGGCTACGACGGGATT
B17: AGGUGGC (DNA:RNA)
RNA: B6 RNA with A29G
DNA 1: CAATCTGAATTCCGGTCTCCC
DNA 2: TGGTGGCTACGACGGGATT
B18: CUCUCUC (DNA:RNA)
RNA: B1 RNA with A26U, G28U, U29C, A31C
DNA 1: CAATCTGAATTCCGGTCTCCC
DNA 2: TGGTGGCTACGACGGGATT
B19: UAUUCUC (DNA:RNA)
RNA: B6 RNA with A25U, G26A, G27U, A29C, G30U
DNA 1: CAATCTGAATTCCGGTCTCCC
DNA 2: TGGTGGCTACGACGGGATT
B20: AGAAUUG (DNA:RNA)
RNA: B6 RNA with G27A, U28A, A29U, G30U, C31G
DNA 1: CAATCTGAATTCCGGTCTCCC
DNA 2: TGGTGGCTACGACGGGATT
B21: GAGGCAC (DNA:RNA)
RNA: B6 RNA with A25G, G26A, U28G, A29C, G30A
DNA 1: CAATCTGAATTCCGGTCTCCC
DNA 2: TGGTGGCTACGACGGGATT
B22: GGAUAAA (DNA:RNA)
RNA: B6 RNA with A25G, G27A, G30A, C31A
DNA 1: CAATCTGAATTCCGGTCTCCC
DNA 2: TGGTGGCTACGACGGGATT
B23: CGCAAAA (DNA:RNA)
RNA: B1 RNA with A26G, G28A, U29A, U30A
DNA 1: CAATCTGAATTCCGGTCTCCC
DNA 2: TGGTGGCTACGACGGGATT
B24: ACACGAU (DNA:RNA)
RNA: B6 RNA with G26C, G27A, U28C, A29G, G30A, C31U
DNA 1: CAATCTGAATTCCGGTCTCCC
DNA 2: TGGTGGCTACGACGGGATT
B25: ACGAUCC (DNA:RNA)
RNA: B6 RNA with G26C, U28A, A29U, G30C
DNA 1: CAATCTGAATTCCGGTCTCCC
DNA 2: TGGTGGCTACGACGGGATT
B26: GUUUAGC (DNA:RNA)
RNA: B6 RNA with A25G, G26U, G27U
DNA 1: CAATCTGAATTCCGGTCTCCC
DNA 2: TGGTGGCTACGACGGGATT
B27: GAUGAAU (DNA:RNA)
RNA: B1 RNA with C25G, C27U, U29A, U30A, A31U
DNA 1: CAATCTGAATTCCGGTCTCCC
DNA 2: TGGTGGCTACGACGGGATT
B28: ACUGAGC (DNA:RNA)
RNA: B6 RNA with G26C, G27U, U28G
DNA 1: CAATCTGAATTCCGGTCTCCC
DNA 2: TGGTGGCTACGACGGGATT
B29: UUGGGCA (DNA:RNA)
RNA: B1 RNA with C25U, A26U, C27G, U29G, U30C
DNA 1: CAATCTGAATTCCGGTCTCCC
DNA 2: TGGTGGCTACGACGGGATT
B30: UCGACCC (DNA:RNA)
RNA: B6 RNA with A25U, G26C, U28A, A29C, G30C
DNA 1: CAATCTGAATTCCGGTCTCCC
DNA 2: TGGTGGCTACGACGGGATT
B31: UCACGAU (DNA:RNA)
RNA: GGGAGACCGGAAUUCAGAUUGUCCUCACGAUUUAAAUCCCGUCGUAGCCACCA
DNA 1: CAATCTGAATTCCGGTCTCCC
DNA 2: TGGTGGCTACGACGGGATT

The binders below were run against T1, RBFOX1 RRM RbFoxmut (Fox-RRM*) (assay: EMSA; HiTS-Eq, 1 nM pool, 10 min; buffer printed only for the single-RNA assays: 10 mM Tris pH 7.5, 150 mM NaCl, 3.4 mM EDTA, 0.001% NP-40, 30 C). Conditions: tags: His6 N-terminal (pET28a); label: 5' 32P.
In short: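 Purified wild-type or mutant RbFox RRM at increasing concentrations was equilibrated with 1 nM of 5′-radiolabelled RNA carrying 7 randomized nucleotides for 10 min in 50 µL. Unbound RNA was separated by 8% native PAGE and sequenced. Relative association constants came from read-count changes of each RNA species compared with the control reaction, normalised to the cognate motif.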

Binder	binding signal
B1	0.139 KA relative to UGCAUGU
B2	0.131 KA relative to UGCAUGU
B3	0.0869 KA relative to UGCAUGU
B4	0.108 KA relative to UGCAUGU
B5	0.153 KA relative to UGCAUGU
B6	0.114 KA relative to UGCAUGU
B7	0.116 KA relative to UGCAUGU
B8	0.0953 KA relative to UGCAUGU
B9	0.0858 KA relative to UGCAUGU
B10	0.0827 KA relative to UGCAUGU
B11	0.261 KA relative to UGCAUGU
B12	0.0728 KA relative to UGCAUGU
B13	0.107 KA relative to UGCAUGU
B14	0.108 KA relative to UGCAUGU
B15	0.235 KA relative to UGCAUGU
B16	0.125 KA relative to UGCAUGU

Binder	binding signal
B17	0.135 KA relative to UGCAUGU
B18	0.0481 KA relative to UGCAUGU
B19	0.0952 KA relative to UGCAUGU
B20	0.129 KA relative to UGCAUGU
B21	0.0688 KA relative to UGCAUGU
B22	0.086 KA relative to UGCAUGU
B23	0.0997 KA relative to UGCAUGU
B24	0.0623 KA relative to UGCAUGU
B25	0.0727 KA relative to UGCAUGU
B26	0.114 KA relative to UGCAUGU
B27	0.0674 KA relative to UGCAUGU
B28	0.0856 KA relative to UGCAUGU
B29	0.0791 KA relative to UGCAUGU
B30	0.0544 KA relative to UGCAUGU
B31	0.0725 KA relative to UGCAUGU
